Binding signal data for 110 sequences are collected here from article PMC6212790.

This is one part of the list. At the low end of the ranking, values are background and their order means little.

The assay concerns the target T1, GST-Rok-C97-191 (UniProt O34857).
T1 sequence: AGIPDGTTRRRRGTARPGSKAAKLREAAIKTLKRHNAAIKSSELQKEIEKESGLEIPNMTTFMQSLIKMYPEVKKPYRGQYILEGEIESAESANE
In words: protein binding microarray.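 Note: rank score from −0.5 (least bound) to 0.5 (best bound).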 Particulars: Rok is a gene silencer of Bacillus subtilis; high values mean tight binding; most listed sequences are background and not binding sites; double strand, one strand shown.
As to GATAGGTA, the binding signal turned out to be 0.158 E-score. Next, CCTATGTC: 0.00264 E-score; GAATGATA: 0.29 E-score. To CATTGCTA belongs 0.118 E-score. Next, AAACTTGG: -0.108 E-score; AGAGACGA: -0.286 E-score. In the case of TTGCAAAA, the binding signal is -0.0136 E-score. Next, AGTCTAGG: -0.139 E-score; AGAACGGA: -0.029 E-score; GTGGTCAA: -0.14 E-score.

Take TCAAAAGA: the binding signal was -0.163 E-score. Sequence TCGGAAGA came in with a binding signal of -0.0901 E-score. Next, GTATATAC: 0.43 E-score; CTTGCGAC: -0.167 E-score; AATACAGC: -0.0291 E-score.

In turn, CTGAACAG displayed a binding signal of -0.183 E-score.

In the case of CGAGGTAG, the binding signal was 0.0918 E-score. As to GCGTCAGC, the binding signal is -0.296 E-score. Next, CAGGACTG: -0.147 E-score; AGGGTAAG: -0.0906 E-score. Next, GGTTAGGA: -0.165 E-score; ACCGATGA: -0.0368 E-score. As to CATCTGTC, the binding signal was -0.276 E-score. Next, GAGGACCC: -0.299 E-score; GGCTCTGA: -0.223 E-score; AGCGAAGC: -0.206 E-score. Next, AGAGCCCC: -0.19 E-score; ATTCGACA: 0.12 E-score; GGGATGAC: 0.0332 E-score. As for CCGGGAAG, the binding signal was -0.133 E-score.

Take AAAAGCGG: the binding signal was -0.034 E-score. For the sequence GGGTCACC, the binding signal is -0.279 E-score. To AAATCCCG belongs 0.00351 E-score; to CGAAGACG, -0.202 E-score. Sequence CTTTGGAA gave a binding signal of 0.00643 E-score. Next, GCATAACC: 0.0668 E-score; AGAGACAG: -0.118 E-score; AAGAGCTG: -0.0939 E-score. The sequence CCCTGGTC showed a binding signal of -0.227 E-score. In turn, GGAGCAGA registered a binding signal of -0.154 E-score. Consider AGATTGTA, for which the binding signal was 0.227 E-score. Next, CATTGAGA: -0.0375 E-score; ACGAAGTC: -0.153 E-score; ATAAGGCG: 0.0559 E-score. Next, AACGCATG: -0.0952 E-score. Take TACTACGA: the binding signal amounted to 0.291 E-score. To TACGCGGA belongs 0.049 E-score; to CCCGCTCG, -0.26 E-score; to AGCTAATC, 0.102 E-score. To CCGCGGGC belongs -0.218 E-score; to CACACAGG, -0.154 E-score; to CAGCGACA, -0.0598 E-score. Next, ATACCTGG: 0.0834 E-score; CCCCGTAG: -0.149 E-score; GCACAATA: 0.27 E-score. For TTATGAAA, the binding signal worked out at 0.211 E-score. As for ACTGCACC, the binding signal is 0.128 E-score.

Take CTTAATCC: the binding signal is -0.0759 E-score.

With ATTTTGGC, the binding signal is -0.11 E-score.

In turn, AGATCGTC displayed a binding signal of -0.0785 E-score. Sequence AGCGCCAT gave a binding signal of -0.149 E-score.

The sequence AGTGTCCA displayed a binding signal of -0.00668 E-score. To AGCACATG belongs -0.0988 E-score; to CTAGAATC, 0.241 E-score; to AGGTCCGG, -0.256 E-score. Next, TACGAGTA: 0.28 E-score; CACCAGGG: -0.265 E-score. With CGGTGACA, the binding signal was -0.0541 E-score. For CCGTACGA, the binding signal was found to be 0.0427 E-score. With ACCTTGTA, the binding signal worked out at 0.0183 E-score.

With GTACAAAA, the binding signal is 0.243 E-score. On to ACTCTGAG, for which the binding signal was -0.242 E-score. Consider ATTTGAAC, for which the binding signal came to 0.0178 E-score. Take CACGGTCA: the binding signal is -0.0748 E-score.

Take CGCCCACG: the binding signal is -0.176 E-score. To TGGGCCCA belongs -0.312 E-score; to AAGAATAC, 0.159 E-score; to GGCTGCGA, -0.0517 E-score.

In turn, AGGTACTG displayed a binding signal of 0.0073 E-score. In the case of TACTATGA, the binding signal stood at 0.213 E-score.

As to CTGACTGA, the binding signal is -0.196 E-score. Sequence AAGATGGG displayed a binding signal of 0.188 E-score.

CGGCGACC returned a binding signal of -0.367 E-score. With GAACAGCA, the binding signal is -0.0292 E-score. In turn, CGTACTAC displayed a binding signal of 0.305 E-score.

Regarding GAGTCCGA, the binding signal is -0.152 E-score. To CTGCCCAC belongs -0.253 E-score; to GATTTTGC, 0.0453 E-score; to GTTCGTGA, 0.0204 E-score. As to AGCGCACC, the binding signal is -0.128 E-score. Consider ACAAGGGA, for which the binding signal was -0.168 E-score. As to AAATTGGG, the binding signal is 0.0128 E-score. In turn, GTTACCAA displayed a binding signal of 0.109 E-score. To AAAGCTTT belongs 0.011 E-score; to GAATAATC, -0.0939 E-score. TGGCCCAA yielded a binding signal of -0.287 E-score.

Sequence AGACAATA gave a binding signal of 0.0922 E-score. To CAACTGCA belongs 0.0818 E-score. To CCACGATA belongs -0.0343 E-score; to AGCGTTGG, -0.154 E-score; to ACCACGTG, -0.026 E-score. To CGACGAAC belongs -0.0119 E-score; to CAAACTGG, -0.126 E-score. As for ATATTAGG, the binding signal was found to be 0.117 E-score. Next, GAAATTGC: 0.239 E-score; AGGGCTAC: -0.136 E-score. Next, GGTTGTCA: -0.0877 E-score; ACTCTGTA: -0.0465 E-score. Next, CCGAAACG: -0.189 E-score. Turning to ATCTCAAA, the binding signal is 0.165 E-score.
